In all, about 46,000 compounds went through this assay and about 60 (0.1%) were called active. Not shown: some 3% with an inconclusive outcome. Calls follow the shape of the dose curve; as a rule, active = well fitted inhibition curve with a large enough effect; inconclusive = small, poorly fitted or top-dose-only effect; inactive = no such curve, though single readings can be large or run the other way. The list shows a part of the results. Non-standard residues stand in square brackets, D forms with d. Residues, ends and D or L forms follow the SMILES beside them. *: point of attachment. Sta = CC(C)C[C@H](N)[C@@H](O)CC(=O)O; Isovaleryl = CC(C)CC(=O)*
Experiment: Primary qHTS assay for Inhibitors of ovarian cancer metastasis using an organotypic tumor microenvironment (TME) model. Also: nearly all actives have a fitted effect of over 65% in size.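 As to activity change, negative = inhibition: plate controls were DMSO wells for no effect and tomatine positive control wells for full effect.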
Settings: SKOV3ip1-GFP adhesion/invasion on 3D omental model, fluorescence; series mostly up to 45.8 µM; activity change, negative = inhibition: at the top concentration
How it was run: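 Primary human omental fibroblast/mesothelial 3D culture pre-formed 48 h. SKOV3ip1-GFP cells added with compounds (0.36-46 umol/L), incubated 2 h RT/16 h 37 C, fixed; GFP cells quantified at 488/509 nm.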

outcome, inactive:
CC(=O)Nc1ccc(Nc2nnc(-c3ccc(C)c(S(N)(=O)=O)c3)c3ccccc23)cc1, O=C(NCc1ccc2c(c1)CCN2C(=O)c1ccccc1)c1ccco1, Cc1ccc(NC(=O)C(=O)NCCc2csc3nc(-c4ccccc4C)nn23)cc1Cl, COCCn1c(SCC(=O)Nc2ccc(C(F)(F)F)cc2)nc2c([nH]c3ccccc32)c1=O, CCC1=C(c2ccc(C)cc2)S(=O)(=O)N=C1N1CCC(C(=O)NCc2ccccc2Cl)CC1

Activity change, negative = inhibition, inactive:
CCCS(=O)(=O)N1CC(=O)N(c2ccc(Cl)cc2)C(C)(C(=O)NC2CCCC2)C1 (stereo not drawn) -0.356%, CCn1cc2nc(SCc3ccc(F)cc3)n(Cc3ccc(Cl)cc3)c(=O)c2n1 1.64%, COCCCNC(=O)CN1C(=O)CSc2ccc(S(=O)(=O)N3CCOCC3)cc21 -1.82%, O=C(NCc1ccccc1Cl)c1ccc(NC(=O)N2CCSc3ncccc32)cc1 4.26%, COc1cccc(N2CCN(C(=O)c3cc4c(=O)n(Cc5ccco5)ccc4nc3C)CC2)c1 9.21%, O=C(Nc1ccc(S(=O)(=O)N(Cc2ccccc2)c2ccccc2)cc1)c1ccc([N+](=O)[O-])cc1 3.64%, Cc1ccc(NC(=O)c2oc3ccc(S(=O)(=O)N4CCC5(CC4)OCCO5)cc3c2C)c(C)c1 2.99%, CCCCCOC(=O)c1ccc(OC(=O)c2sc3ncn(Cc4cccc(F)c4)c(=O)c3c2C)cc1 5.92%, CCCN(CCC)CCNC(=O)C1CCCN(S(=O)(=O)c2cccc3nsnc23)C1 (stereo not drawn) 12.6%, CCOC(=O)c1cc(S(=O)(=O)N2CCN(c3ccc(F)cc3)CC2)[nH]n1 15.3%, CC(=O)N1CCCc2cc(S(=O)(=O)N3CCCC(C(=O)Nc4cccc(Cl)c4C)C3)ccc21 (stereo not drawn) -13.7%, CCOC(=O)c1cnc2ccc(OCC)cc2c1Nc1cc(Cl)c(OC)cc1OC 2.6%, CC(C)Cn1cc(C(=O)N2CCN(c3cccc(Cl)c3)CC2)c2c3ccccc3n(C)c2c1=O -16.9%, COc1ccc(OC)c(NC(=O)N2CCC(CN3CCCCC3)CC2)c1 0.735%, COc1ccc(OC)c(CNc2sc3c(c2C(=O)Nc2cc(OC)ccc2OC)CCCC3)c1 -2.29%, Cc1nc(SCc2ccc(Cl)cc2)c(C#N)c(C)c1Cl -13.7%, CCOc1cc2[nH]c(=O)n(CCCC(=O)N3CCN(c4cccc(Cl)c4)CC3)c(=O)c2cc1OCC -7.63%, CC(C)CC(=O)N[C@H](C(=O)N[C@H](C(=O)N[C@@H](CC(C)C)[C@@H](O)CC(=O)N[C@@H](C)C(=O)N[C@@H](CC(C)C)[C@@H](O)CC(=O)O)C(C)C)C(C)C (Isovaleryl-VV[Sta]A[Sta]-OH) -13.3%
